Measurements reported in the supplement of paper PMC3334620.
In all, about 33,000 sequences were measured (“E-score (-0.5 to 0.5)”: median about -0.017, highest 2% from about 0.3 on). The list shows a part of the results.

Biological target: T1, Sut1 (UniProt P53032)
T1 sequence: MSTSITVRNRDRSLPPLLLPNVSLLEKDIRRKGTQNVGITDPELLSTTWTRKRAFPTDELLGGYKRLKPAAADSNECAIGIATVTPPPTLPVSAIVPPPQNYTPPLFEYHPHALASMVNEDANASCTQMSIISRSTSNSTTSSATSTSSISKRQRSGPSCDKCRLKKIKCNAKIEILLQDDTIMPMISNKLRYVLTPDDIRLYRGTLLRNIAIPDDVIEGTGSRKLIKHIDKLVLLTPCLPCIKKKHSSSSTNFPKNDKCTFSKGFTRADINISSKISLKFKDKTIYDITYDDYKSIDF
Assay: PBM E-score (8-mer binding enrichment) (E-score (-0.5 to 0.5)); higher = stronger / more preferred TF binding; most listed sequences are background and not binding sites
Details: protein concentration: 200 nM; construct: GST-full length
Procedure: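 Universal 'all 10-mer' protein binding microarrays (Agilent AMADID 015681) probed with GST-tagged S. cerevisiae TFs (full-length or DBD) made by in vitro transcription/translation (PURExpress), about 100-200 nM. Bound TF was detected with fluorescent anti-GST. Each ungapped 8-mer (which stands for itself and its reverse complement) is scored by the PBM enrichment score (E-score), a modified Wilcoxon-Mann-Whitney statistic from -0.5 to +0.5, computed with the Universal PBM Analysis Suite. Scale: above 0.35 generally sequence-specific binding.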

Sequence | PBM E-score
ATATTTTC | 0.183
AGTAAATA | 0.282
AGATAGCG | -0.0403
AACGACCG | -0.21
ATCTCTGC | -0.124
GTGCAGTA | -0.171
GAGCTGGA | -0.142
GCCAACAC | 0.0788
CAATCTTC | 0.148
TGGTTTAA | 0.264
ATTCCCCC | -0.0696
ATCTCGTG | -0.147
ATCACTCC | 0.102
ATACGCAG | -0.2
CACGCCCC | -0.118
CGACTGAC | -0.124
GATAGCTA | -0.127
CAAATATC | 0.202
GTACCAGA | -0.206
ACGCTTCT | -0.0542
CCCGTACA | -0.288
ATGAACCC | 0.00896
GGTGCAGA | -0.28
CGGGAGCA | -0.0121
CACTTTGC | 0.0519

Sequence | PBM E-score
GCAGCAAC | -0.133
TATGTCCA | -0.114
CTCCCTGA | -0.313
ATATTGAG | 0.181
AAGCTAAC | 0.0679
AGACCCAT | -0.19
ACGGAGAA | 0.362
AATTGCCT | -0.00731
CCGTCTTC | 0.101
CACCAAAG | 0.0334
CTACCTGA | -0.128
GATGCAGC | -0.0635
CAATTTCC | 0.126
ATACATCC | 0.00718
CAACTAGG | -0.0692
AGCGCTGG | -0.185
AATCCATT | 0.104
AACTTCCA | 0.06
AGGCCGAT | -0.0189
CAACCGCA | 0.0447
ATGATCTC | -0.0262
CACCACCC | -0.0706
CGTACTTA | 0.027
GACCGCCA | -0.216
AACTTGGG | -0.0482

Sequence | PBM E-score
AAGCTCGC | 0.0319
CGTGAGTA | -0.055
GAGAAGGC | -0.0615
AAATAGTC | 0.137
GGAATCTA | 0.122
CACTCCCC | -0.084
CCATGGGG | -0.252
CGAGGTGA | 0.0936
CACTCTGG | -0.263
AGCCAATA | -0.0262
CATATTGG | 0.112
CTTGGCGC | -0.0987
CGATAGAA | 0.0498
CAGTTCGC | 0.0244
GAAATCAA | 0.0471
AATAAAGC | 0.188
AGGATCGG | -0.00265
AGACCCGC | -0.269
TAAATCAA | 0.269
GATCAGCA | -0.0614
ACCGGAGG | 0.133
AGACCCCA | -0.173
ACGGATCG | -0.0493
ACAGAGGA | -0.211
TGAGCCCA | -0.251

Sequence | PBM E-score
ATGAGACG | -0.112
ACGGTCTA | -0.0922
TGCTTACA | -0.174
GCACGGAC | 0.289
ACGTATTG | 0.0683
AGCAACAG | 0.0514
CGCGTCTA | -0.0249
GCTCCGGA | 0.442
ACAAGAGT | 0.166
ATAAGAAG | 0.178
ATGTTCAG | -0.139
CTGACACA | -0.147
CACTGTAA | 0.104
CATTACTA | 0.0871
ATACGCCC | -0.112
GAGGGGGC | -0.388
CAAGCAGC | -0.0879
ATCCACGA | 0.0124
AGGTTCTA | -0.042
GGAGTTAA | 0.337
ATCAGTGA | -0.071
AAAATGCT | 0.136
CGATGTCC | 0.164
CCTATGAC | -0.2
CGTGGTCC | -0.246

Sequence | PBM E-score
AGAAGGTA | 0.124
AGTTGAGC | -0.191
CCACAGGG | -0.243
CTGGCGAA | -0.195
AAGTCGAG | -0.0466
GGCCCGCC | -0.386
CAGTCTTA | 0.0114
GTTTAGAA | 0.244
GTTCATTA | 0.107
AACTAAGC | 0.115
GAGACCCA | -0.139
ACCAGGTG | -0.283
CATTGCTC | 0.1
GAAAATAA | 0.229
ATTCGTTC | 0.242
GAAAACTC | 0.263
AGAAGGAC | -0.0297
CTGAGATC | -0.209
ATCTGAGC | 0.113
ATTTCAAC | 0.191
CGAGGCAG | -0.132
TCATGCGA | -0.129
ACGACGGA | 0.183
CAGGGAGA | -0.138
TACCTCTA | 0.0421

Sequence | PBM E-score
CTCCGAGA | 0.459
AAGTTGGG | -0.192
AACTCTGC | -0.0826
ATTTCGCG | 0.166
GGAAACTA | -0.115
CAACCCGA | -0.0397
AGGAGTGA | -0.0299
ATTAATTA | 0.188
AAACTACC | 0.121
CGTTTCGA | -0.112
ACGTGGCC | -0.346
AAACACGG | -0.0101
ACGCGAAG | -0.147
AGAGGGGG | -0.322
ACATGGCA | -0.00576
ACATTGTG | -0.221
AACCCCAT | -0.0232
CAAGCACG | -0.0723
GACTCCCC | -0.181
AACCCCAC | -0.279
GCGGCGTA | 0.00609
AAGAATGA | 0.135
GCGACAGC | -0.173
AAGATGCT | 0.13
ACTCCAGC | -0.0207

Sequence | PBM E-score
CCAATCCA | -0.0273
CCCGTCCG | -0.304
AACCTTGT | -0.217
CAGGGGTA | -0.334
CGCTAGCG | -0.224
CGGCCCAG | 0.0003
CCTCGACG | -0.129
ACCACTAG | -0.0972
ACCGTCAT | -0.13
TCTTCCCA | -0.189
CAATTTTA | 0.234
AGGGTTGG | -0.0796
TACCGATA | 0.175
AATTGTCT | -0.0132
GCCTCAGA | -0.168
CGAACTCC | 0.391
CAACCCCG | 0.355
GCGGACAC | -0.102
GCCTATAA | -0.0483
AACCCAGC | -0.212
AGAATTTG | 0.104
GTGTCAAC | -0.221
